Measurements: PubChem BioAssay AID493208 (National Center for Advancing Translational Sciences (NCATS), 2011)
Screen size: about 44,000 compounds; about 340 (0.77%) were called active. About 5% were inconclusive and are not listed. Calls follow the shape of the dose curve; as a rule, active = well fitted inhibition curve with a large enough effect; inconclusive = small, poorly fitted or top-dose-only effect; inactive = flat fitted curve, though single readings scatter. The list shows a part of the results.

assay: Acumen qHTS Assay for Inhibitors of the mTORC1 Signaling Pathway in MEF (Tsc2-/-, p53-/-) Cells: Sytravon; settings: phospho-rpS6 immunofluorescence/PI, 24 h; series mostly up to 38.3 µM; activity change, negative = inhibition: at the top concentration;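 also: plate controls were DMSO for no effect and rapamycin for full effect; nearly all actives have a fitted effect of over 50% in size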
Outline: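 Plate MEFs (Tsc2-/-, p53-/-, empty vector) in DMEM/10% FBS; after 24 h add compound, incubate 24 h at 37 degree Celsius; fix in PFA/TX-100, block, stain phospho-rpS6 and 10 uM PI; scan at 488 nm; report % positive cells.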

Activity change, negative = inhibition, inactive:
Cc1ccc(N(Cc2cccs2)C(=O)c2ccccc2)cc1 1.36%
COc1ccc(-c2nc3ccc(NS(C)(=O)=O)cc3o2)cc1 1.41%
Clc1ccccc1Cn1cccc1C1=NC(Cc2ccccc2)CO1 (stereo unspecified) 2.77%
O=C(O)c1ccc(Nc2nc(-c3ccccc3)c3cc(Br)ccc3n2)cc1 0.0912%
Cn1c(SCC(N)=O)nc2c([nH]c3ccccc32)c1=O -9.71%
Cc1onc(-c2ccc(Br)cc2)c1C(=O)Nc1ccc(Br)cc1F -7.18%
CCOC(=O)c1scc(-c2ccc(C)cc2)c1S(=O)(=O)Nc1cccc(CC)c1 -20.1%
COc1ccc(-n2c(SCC(=O)Nc3nnc(C)s3)nc3c([nH]c4ccccc43)c2=O)cc1 2.88%
COc1cccc2sc(N3CCN(C(=O)CS(=O)(=O)c4ccc(Cl)cc4)CC3)nc12 0.765%
CC(C)N(C(=O)c1cc2c(Cl)nc3ccccc3c2s1)C1CCCCC1 -3.75%
COc1cccc(CNc2ncc(-c3ccc(Br)cc3)n2C)c1 -18.5%
Cc1cccc(C(=O)Nc2cc3c(cc2N2CCOCC2)n(C)c(=O)n3C)c1 1.4%
O=C(O)CC(NS(=O)(=O)c1ccc(Br)s1)c1ccccc1 (stereo unspecified) 6.91%
CCOc1ccc(NC(=O)Cn2cc(C(=O)c3ccc(C)cc3)c(=O)c3cc4c(cc32)OCCO4)cc1 -12.1%
O=C(NCCCN1CCN(c2ccccc2)CC1)c1nnc(Cc2ccc(F)cc2)o1 -10.1%
CCN1C(C(=O)c2ccccc2)=C(OC(=O)COc2ccccc2)c2ccccc2S1(=O)=O -10%
Nc1c(-c2nc(-c3ccccc3)cs2)c2ccccn2c1C(=O)c1ccc2c(c1)OCO2 -0.872%
CC1=C(C(=O)Nc2cc(C)ccc2C)C2(CCCCCC2)OC1=O -2.08%
Cc1cc(C)c(S(=O)(=O)N2CCN(Cc3nc4ccc(C)cc4o3)CC2)c(C)c1 31.7%
CCOCCCNC(=O)Nc1cc(C(=O)NCc2ccc(C(C)C)cc2)ccc1N1CCCC1 0%
CC(C)OCCCN(C)C1CCN(S(=O)(=O)c2csc(C(N)=O)c2)CC1 0%
Cc1ccc(N2CCN(S(=O)(=O)c3ccc4oc(=O)c5ncn(C)c5c4c3)CC2)c(C)c1 -16.9%
COc1ccc(-n2c(C)nc3cc(C(=O)NC4CCCC4)ccc32)cc1 -0.118%
CSc1cccc(NC(=O)Cn2nc(C)c3sc4ccccc4c3c2=O)c1 -4.35%
COc1cc2c(cc1OC)C(COc1ccc(F)cc1)N(C(=O)c1ccccc1F)CC2 (stereo unspecified) 10.6%
CC(=O)c1ccc(C(=O)N(Cc2cccnc2)c2nc3c(Cl)cccc3s2)cc1 -0.602%
Cc1cc(C)cc(NC(=O)C2CCN(c3cc(C)nc4c(-c5ccc(Cl)cc5)c(C)nn34)CC2)c1 -0.666%
Cc1ccc(S(=O)(=O)c2nnn3c2nc(NCc2cccs2)c2sccc23)cc1C -0.619%
COC(=O)C(C)NC(=O)N1CCN(c2nnc(C)c3c(C)n(-c4ccc(Cl)cc4)nc23)CC1 (stereo unspecified) -4.71%
Cn1nnnc1SCCNCc1ccccc1OCc1ccc(Cl)cc1Cl -4.88%
Cc1ccc(C)c(NS(=O)(=O)c2ccc3c(c2)n(C)c(=O)n3C)c1 -0.56%
COc1ccc(-c2noc(Cn3c(=O)c4ccccc4n(CC(=O)Nc4cccc(C(F)(F)F)c4)c3=O)n2)cc1 -12%
CC(C)NC(=O)N1CCC(N2CCN(Cc3ccc(F)cc3)C(=O)C2=O)CC1 -1.78%
CCOc1ccc(N(CC)S(=O)(=O)N2CCCC(C(=O)NCc3ccc(Cl)cc3)C2)cc1 (stereo unspecified) -10.1%
O=C(Cc1ccc(F)cc1)NCCc1csc(-c2cccc(F)c2)n1 2.03%
Cc1ccccc1-c1nc(CS(=O)(=O)CC(=O)Nc2cccc(C(F)(F)F)c2)c(C)o1 -0.164%
COc1ccc2c(c1)c1c(c(=O)n(Cc3ccccc3)c(=O)n1CC(=O)Nc1c(C)cccc1C)n2C -4.25%
Cc1ccc(S(=O)(=O)NCCc2sc3nc(-c4ccccc4)nn3c2C)cc1C -13.5%
O=C(c1cccc(Cl)c1)N(Cc1ccco1)Cc1ccccc1Cl 3.97%
CCc1nc2onc(C)c2c(=O)n1CC(=O)O 0.755%
CCn1c(SCC(=O)N2CCC(C)CC2)nnc1-c1ccccc1O -6.94%
O=S(=O)(Nc1cccc(-c2ccc(N3CCCCCC3)nn2)c1)c1ccccc1 -3.24%
Cc1oc(-c2cccc(Br)c2)nc1Cn1c(=O)cc(-c2ccccc2)c2c(C)nn(C)c21 -8.04%
COc1ccccc1NC(=O)C1=C(C)Nc2nc3ccccc3n2C1c1cccc(Br)c1 (stereo unspecified) 2.77%
COc1ccc(N2CCN(Cc3cc(=O)oc4ccc(OC)cc34)CC2)cc1 4.92%
CCc1ccccc1Nc1cc(C(=O)NCCc2ccccc2)c2ccccc2n1 -8.71%
CCCOc1ccc(Nc2cc(C)nc(C)n2)cc1 -11.1%
O=C(Cn1c(=O)n(-c2ccc(F)cc2)c(=O)c2sc3ccccc3c21)NC1CCCCC1 -1.88%
CCOC(=O)c1ccc2c(c1)N(Cc1cccc(C(F)(F)F)c1)C(=O)c1ccccc1S2(=O)=O 1.75%
O=C(NCC(c1cccnc1)N1CCOCC1)C(=O)Nc1ccc(F)cc1 (stereo unspecified) -11.2%
CCCn1ccc2c(OCC(=O)Nc3ccccc3OCC)cccc2c1=O -6.59%
Cn1c(SCc2cccc(F)c2)nc2c([nH]c3ccccc32)c1=O 0.275%
COc1ccc(OC)c(CCNc2nccn(-c3ccc(C)c(C)c3)c2=O)c1 -4.52%
Cc1ccc(CNC(=O)CCC(=O)N2Cc3ccccc3Oc3ncccc32)cc1 -3.11%
COc1ccc(Cn2c(=O)[nH]c3cc(C(=O)N4CCN(c5ccccc5)CC4)ccc3c2=O)cc1 -0.727%
COc1ccc(CCNC(=O)C2CCN(c3nc4ccccc4nc3C(F)(F)F)CC2)cc1OC 3.28%
O=C(Nc1ccc2nc(SCC(=O)N3CCCc4ccccc43)sc2c1)c1cccc(Cl)c1 0%
COCCCNS(=O)(=O)c1ccc(N2CCCCS2(=O)=O)cc1 0%
Cc1ccc(NC(=O)CN2C(=O)CSc3ccc(S(=O)(=O)N4CCCC4)cc32)c(C)c1 2.87%
COc1ccc(C(=O)Oc2c(Sc3ccccc3)c(C)nn2-c2ccccc2)cc1OC -17%
COc1ccc(NC(=O)C2=C(C)C(=O)OC23CCN(C(C)C)CC3)cc1Cl -3.67%
CC(=O)OCc1cnc(C)c2oc(=O)c(C(=O)Nc3ccc(C)cc3Cl)cc12 5.63%
CC1CCC(Nc2ncnc3onc(-c4ccc(Cl)cc4)c23)CC1 (stereo unspecified) -6.04%
COc1ccc(-c2coc3c2c(C)cc2oc(=O)c(C)c(C)c23)cc1 4.94%
Cc1ccc(CNC(=O)c2oc3ccc(S(=O)(=O)N4CCC(C)CC4)cc3c2C)cc1 -14.6%
CCCCN1C(=O)CN(C2CCCCCC2)C(=O)C1c1ccc(OC(C)C)c(OC)c1 (stereo unspecified) -7.06%
Cc1cccc(OCC(=O)Nc2ccc3nc(Nc4cccc(C(F)(F)F)c4)cc(C)c3c2)c1 0.488%
CCCCNC(=O)c1cc2c(=O)n3cccc(C)c3nc2s1 7.47%
COc1ccccc1CNC(=O)c1ccc2c(c1)N(Cc1cc(C)ccc1C)C(=O)c1ccccc1S2 5.41%
COc1ccc(-c2cc(C(F)(F)F)n3nc(C(=O)O)c(Cl)c3n2)cc1OC 0.146%
CCOc1ccc(NC(=O)Cn2cc(C(=O)c3ccc(F)cc3)c(=O)c3cc4c(cc32)OCCO4)cc1 -6.43%
Cc1ccc(-n2ncc(C(=O)N3CCN(Cc4ccccc4)CC3)c2C2CCN(C(=O)OC(C)(C)C)CC2)cc1 1.43%
CC(=O)c1cc(-c2ccccc2)n(CCC(=O)Nc2ccc(C(C)C)cc2)c1C -8.94%
Cc1ccc(-n2ccnc(NCCc3ccc(S(N)(=O)=O)cc3)c2=O)c(C)c1 -3.23%
CC(C)(C)OC(=O)N1CCC(c2c(C(=O)NCCN3CCCC3)cnn2-c2ccc(Cl)cc2)CC1 3.17%
Cc1oc(-c2ccc(C(=O)NCc3ccc(F)cc3)cc2)nc1CS(=O)c1ccccc1 (stereo unspecified) -3.99%
CCOc1ccc(/C=C/c2nc(C#N)c(NC3CCCCC3)o2)cc1 1.61%
CC(=O)c1cc2c(cc1N/C(=N/S(=O)(=O)c1ccccc1)c1ccc(Cl)cc1)OCO2 -6.71%
Cc1cc(C)cc(C(=O)Nc2c(C(=O)Nc3ccccc3F)oc3ccccc23)c1 -9.52%
COc1ccccc1OCCn1c(C(C)Oc2ccccc2)nc2ccccc21 (stereo unspecified) 0.628%
COc1ccccc1-c1nnc(SCC(N)=O)o1 -4.86%
CCN(CC)CCNC(=O)c1ccc(-c2nc(CS(=O)(=O)c3ccc(C)cc3)c(C)o2)cc1 -2.54%
CC(C)c1ccc(NC(c2nnc(-c3ccccc3)o2)c2ccc(F)cc2Cl)cc1 (stereo unspecified) -16.3%
Cc1ccccc1NC(=O)c1nc(S(C)(=O)=O)ncc1N(Cc1ccco1)Cc1sccc1C 1.09%
Cc1ccccc1OCC(=O)Nc1ccc(C(=O)OCc2cc(=O)n3ccsc3n2)cc1 0%
Cc1ccc(-c2nc(NC(=O)CSc3ccc4ccccc4n3)ns2)cc1 -6.57%
CCN(C(=O)CCc1nc(-c2ccc(C)cc2)no1)c1cccc(Cl)c1 -14.6%
COc1cc2c(cc1OC)C(COc1ccc3c(C)cc(=O)oc3c1)N(C(=O)Cc1ccccc1)CC2 (stereo unspecified) -10.7%
COC(=O)c1cc2sccc2n1CC(=O)Nc1ccc(C)cc1C 3.04%
CCOc1ccccc1C(=O)NC1(C(F)(F)F)C(=O)Nc2c1c(=O)[nH]c(=O)n2-c1ccccc1 (stereo unspecified) 6.39%
Cc1cc(C)c(Cn2c3ccccc3c3cnn(CC(=O)NCCC4=CCCCC4)c(=O)c32)c(C)c1 -1.59%
COc1cccc(CNC(=O)c2ccc3nc(-c4ccccc4)c(-c4ccccc4)nc3c2)c1OC 1.65%
COc1ccc(Nc2nnc(-c3ccc(C)c(S(=O)(=O)NCc4nc5ccccc5[nH]4)c3)c3ccccc23)cc1 9.05%
CCC(C)Sc1oc(-c2ccco2)nc1S(=O)(=O)c1ccc(Cl)cc1 (stereo unspecified) -23.9%
Cc1ccc(NC(=O)Cn2nnc(C(=O)NCCc3ccccc3)c2N)cc1 2.27%
Clc1ccc(-c2csc(-c3nc(-c4ccc(Br)s4)cs3)n2)cc1 0.115%
